{"source": "PubChem BioAssay AID686978", "about": "(National Center for Advancing Translational Sciences (NCATS), 2013)", "note": "The whole screen tested about 420,000 compounds, of which about 64,000 (15%) were called active. The shares of active, inactive and inconclusive entries below differ from those in the screen. Calls follow the shape of the dose curve; as a rule, active = well fitted inhibition curve with a large enough effect; inconclusive = small, poorly fitted or top-dose-only effect; inactive = flat fitted curve, though single readings scatter. No potency is given beside an inconclusive call; the fits are too rough. Peptide text beside a SMILES is read from it. Potency is read from the fitted curve at half-maximal effect; tags tell the direction and shape of the fitted curve.", "data": [{"assay": "qHTS for Inhibitors of human tyrosyl-DNA phosphodiesterase 1 (TDP1): qHTS in cells in absence of CPT; also: nearly all actives have a fitted effect of over 55% in size", "settings": "DT40 Tdp1-/- hTDP1 cells, no CPT, ATP luminescence, 48 h; series mostly up to 46.2 µM", "how_it_was_run": "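Chicken DT40 Tdp1-/- cells stably complemented with human TDP1 were seeded at 400 cells/well with DMSO in place of 20 nM camptothecin. After compound pinning, cells grew at least 48 hr at 37 °C; viability read by CellTiter-Glo luminescence.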", "values": [{"compound": "CCOc1ccc(OCCOC(=O)CN2C(=O)NC3(CCCC3)C2=O)cc1", "Potency": "inconclusive [inhibitor, single point]"}, {"compound": "CC(=O)Nc1ccc(-c2csc(Nc3ccc(Cl)cn3)n2)cc1", "Potency": "inconclusive [inhibitor, single point]"}, {"compound": "Cc1nc(S(=O)(=O)c2ccc(Br)cc2)nc2c1CCC2", "Potency": "inconclusive [inhibitor, full curve, poor fit]"}, {"compound": "COc1ccc(C2CC(c3ccc4ccccc4c3)=NN2C(=O)CNC2CCCCC2)cc1", "note": "(configuration not stated)", "Potency": "active: 13 µM"}, {"compound": "COc1ccc(Cc2noc(-c3ccc([N+](=O)[O-])cc3)n2)cc1OC", "Potency": "inconclusive [inhibitor, single point]"}, {"compound": "Cc1ccc(-c2noc(CSc3ccccc3)n2)cc1", "Potency": "inactive"}, {"compound": "CC(C(=O)N1CCc2ccccc21)N1CCN(S(=O)(=O)c2ccc3c(c2)OCCCO3)CC1", "note": "(configuration not stated)", "Potency": "inconclusive [inhibitor, single point]"}, {"compound": "CCN(CC)c1ccc(C=Nc2cccc(S(=O)(=O)N3CCOCC3)c2)c(O)c1", "Potency": "inactive"}, {"compound": "Cc1nn(CC(=O)NCCN2CCOCC2)c(=O)c2cc3sccc3n12", "Potency": "inactive"}, {"compound": "CN(Cc1ccccc1)C(=O)[C@@H]1CCCN1", "Potency": "inactive"}, {"compound": "CCNc1ccc(S(=O)(=O)N(C)C)cc1NCC(=O)Nc1ccccc1Cl", "Potency": "inconclusive [inhibitor, single point]"}, {"compound": "Cc1cc(OCC(=O)N2CCc3ccccc3C2)c2c(-c3ccccc3)cc(=O)oc2c1", "Potency": "inconclusive [inhibitor, single point]"}, {"compound": "CCOc1ccccc1NC(=O)CC1C(=O)NCCN1C(=O)c1ccc(F)cc1", "note": "(configuration not stated)", "Potency": "inactive"}, {"compound": "Cc1cnc2ccc3ccccc3c2c1C", "Potency": "inconclusive [inhibitor, single point]"}, {"compound": "O=C(NN=Cc1ccccc1)NN=Cc1ccccc1", "Potency": "inconclusive [inhibitor, partial curve]"}, {"compound": "NC(=O)[C@@H]1CSSCCC(=O)N[C@@H](CCCCN=C(N)N)C(=O)NCC(=O)N[C@@H](CC(=O)O)C(=O)N[C@@H](Cc2c[nH]c3ccccc23)C(=O)N2CCC[C@H]2C(=O)N1", "note": "(HELM PEPTIDE1{[O=C(CCS[*:3])[*:2]].[N=C(N)NCCCC[C@H](N[*:1])C(=O)[*:2]].G.D.W.P.C.[am]}$PEPTIDE1,PEPTIDE1,1:R3-7:R3$$$V2.0)", "Potency": "inconclusive [inhibitor, partial curve, poor fit]"}, {"compound": "O=C(/C=C/c1ccc(Cl)cc1)Nc1ccccc1N1CCOCC1", "Potency": "inconclusive [inhibitor, single point]"}]}]}
